Assay results as given in paper PMC12578172, “Structure and function of Full-length Tau” (PLOS One, 2025).

Biological target: the molecule itself
Assay: co-sedimentation; self-aggregation: 40 μM Tau isoform in 0.1 M NaCl, 20 mM ammonium acetate, 1.5 mM CaCl2, pH 7.0, with 10 μM heparin, 12 h at 37 °C; aggregates isolated by centrifugation, supernatant and pellet blotted with HT7; also electron microscopy

B1: Full-length Tau isoform (Full Tau), containing all exons of the MAPT gene (natural protein)
chain: not shown
notes: human Tau isoform with all coding exons (+2, +3, +4A, +6, +8, +10), 776 amino acids, vector pRK-FullTau (synthetic cDNA, GenScript); No tag is mentioned; also called Full human Tau; MAPT-205; source: E. coli BL21, purified (boiling, ammonium sulfate precipitation, dialysis)
  binding result: binds
